Results: ChEMBL document CHEMBL1201862, “PubChem BioAssay data set” (2004)
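Results reflect a 48-hour exposure of cells in 96-well plates to compound at five concentrations. Here, GI50 denotes the concentration required for 50% inhibition of growth.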 Active and inactive are the calls of the source. No stated cut-off is given here; in the data, active = GI50 up to about 1.1 µM and inactive = higher.

What follows are molecules tested on NCI-H322M (assay: NCI-60 cell line screen, 48 h).
With `CC1OC(OC2C(O[C@H]3CC[C@@]4(C)C(=CC[C@H]5[C@@H]6C[C@@H]7O[C@]8(CC[C@@H](CO)CO8)[C@@H](C)[C@@H]7[C@@]6(C)CC[C@@H]54)C3)OC(CO)C(O)C2OC2OC(CO)C(O)C(O)C2O)C(O)C(O)C1O` (stereo partly drawn) the GI50 was inactive: 2.2 µM. `CCc1ccccc1NC(=O)C1=C(C)NC(C)=C(C(=O)Nc2c(CC)cccc2CC)C1c1ccc2c(c1)OCO2` (stereo not drawn) was tested, and the GI50 was inactive: 22.4 µM. In the case of `COC(=O)C12CC3CC(CC(C(=O)O)(C3)C1)C2`, the GI50 is reported as inactive: > 100 µM. For `COc1ccc(/C=C/C(=O)c2cc(CN(C)C)c(O)c(CN(C)C)c2)cc1`, the GI50 was inactive: 27.9 µM. For `O=C(/C=C/c1ccco1)c1ccc(NCc2nc3ccccc3[nH]2)cc1`, the GI50 was inactive: 9.59 µM. In the case of `O=CN/C=C\c1cc(O)ccc1O`, the GI50 is reported as inactive: > 100 µM. `O=C(O)C1Cc2ccccc2OC1=O` (stereo not drawn) was tested, and the GI50 was inactive: > 100 µM. For `CCCCCCCCCCCc1noc2c1C(=O)C(O)CC2` (stereo not drawn), the GI50 was inactive: 76.9 µM. With `c1ccc2c[n+](Cc3ccnc4ccccc34)ccc2c1` the GI50 was inactive: > 100 µM. For `CN/C(=N\N)NS(=O)(=O)c1cc(C)c(Cl)cc1S`, the GI50 was inactive: 72.6 µM. With `CC(=O)NNc1nc(C)c(C(=O)NNC(=O)C(=O)Nc2c(C)cccc2C(C)C)s1` the GI50 was inactive: > 100 µM. For `CC(C)(C)CC(C)(C)c1cc(O)c(O)c(CN2CCCCC2)c1`, the GI50 was inactive: 15.8 µM. For `CCOC(=O)Oc1cc2c(c(OC)c1OC)-c1ccc(SC)c(=O)cc1C(NC(=O)C(F)(F)F)CC2` (stereo not drawn), the GI50 was active: 0.1 µM. With `CC(=O)Oc1ccc(-c2cc3ccccc3oc2=O)cc1` the GI50 was inactive: 83.9 µM. With `NC1C2C(CC(=O)O)OCC=C3CN4CCC1(C(=O)C(=O)O)C4CC32` (stereo not drawn) the GI50 was inactive: > 100 µM. With `CCN(CC)CC(=O)/C=C/c1ccc(C)cc1` the GI50 was inactive: 33.2 µM. With `CCOc1ccc2nc3nc(O)nc(C)c3c(NCCCN(CC)CC)c2c1` the GI50 was inactive: > 100 µM. With `N#Cc1nc(/C=C/c2ccccc2)oc1N` the GI50 was inactive: > 100 µM. In the case of `Cc1[nH]n(-c2nc(O)c(C)c(=O)[nH]2)c(=O)c1CCO`, the GI50 is reported as inactive: > 100 µM. For `CC(C)(C)CC(C)(C)NCC(O)COc1ccc(C(C)(C)c2ccc(OCC(O)CNC(C)(C)CC(C)(C)C)cc2)cc1` (stereo not drawn), the GI50 was inactive: 1.71 µM. With `C[N+]1=C2[B-](C(C)(C)C)=[N+](C(C)(C)C)[B-]2(C(C)(C)C)[N+](C)=C2[B-](C(C)(C)C)=[N+](C(C)(C)C)[B-]21C(C)(C)C` (stereo not drawn) the GI50 was inactive: > 100 µM. For `Cc1cc(S(=O)(=O)NC2=Nc3ccc(Cl)cc3C(c3ccccc3)N2)c(S)cc1Cl` (stereo not drawn), the GI50 was inactive: 20.3 µM. For `CCOC(=O)C1=C(OS(=O)(=O)C(F)(F)F)CCCC1`, the GI50 was inactive: > 100 µM. `COc1cc(Nc2c3ccccc3nc3ccccc23)ccc1NS(C)(=O)=O` was tested, and the GI50 was inactive: 5.79 µM. With `CC(=O)Oc1ccccc1` [ACETIC ACID PHENYL ESTER] the GI50 was inactive: > 100 µM. With `CC(=O)O[C@H]1C[C@H]2[C@@H]([C@H](OC(C)=O)C[C@@H]3CC4(CC[C@@]32C)OOC2(CCCCC2)OO4)[C@@H]2CC[C@H]([C@H](C)CCC(=O)O)[C@@]12C` the GI50 was inactive: 13.2 µM. In the case of `CC(CCc1nc2ccccc2s1)(c1ccc(O)cc1)c1ccc(O)cc1`, the GI50 is reported as inactive: 17.7 µM. In the case of `CC1(C)CC(=O)c2c(nc(SSc3nc4c(c(-c5ccc(Br)cc5)c3C#N)C(=O)CC(C)(C)C4)c(C#N)c2-c2ccc(Br)cc2)C1`, the GI50 is reported as inactive: > 10 µM. `O=C(/C=C1/Nc2ccc([N+](=O)[O-])cc2N/C1=C/C(=O)c1ccc(Cl)cc1)c1ccc(Cl)cc1` was tested, and the GI50 was inactive: > 100 µM. `Cc1cc(C(F)(F)F)cc(-n2nc(NS(=O)(=O)c3cc(C)c(Cl)cc3S)nc2N)n1` was tested, and the GI50 was inactive: 26.7 µM. `COc1nc2c(c(O)c(C)c(=O)n2OC2OC(COC(C)=O)C(OC(C)=O)C(OC(C)=O)C2OC(C)=O)c(=O)n1C` (stereo not drawn) was tested, and the GI50 was inactive: > 100 µM. For `CN(C)/C=C/C=C(/C=N/S(=O)(=O)C(F)(F)F)C1C=CN(S(=O)(=O)C(F)(F)F)C=C1`, the GI50 was inactive: 36.5 µM. `O=C(Cc1cc[n+]([O-])cc1)C(=O)Nc1cc(Cl)c(Cl)cc1Cl` was tested, and the GI50 was inactive: > 100 µM. `CO/C=C(/C(=O)OC)c1ccccc1[C@H]1C[C@@H]1c1ccc(OC)cc1` was tested, and the GI50 was inactive: 48.2 µM. `CN(CC(=O)O)c1ncc2c(n1)C=CCC2` was tested, and the GI50 was inactive: > 100 µM. `COc1cc(/C=C/C(=O)Oc2ccc(NC(C)=O)cc2)ccc1C(=O)O/C=C/c1ccccc1` was tested, and the GI50 was inactive: > 100 µM. In the case of `CCc1cccc(C)c1NC(=O)CCc1n[nH]c(=S)o1`, the GI50 is reported as inactive: > 100 µM. `O=C(O)c1cc2ccccc2c(/N=N/c2ccc(S(=O)(=O)Nc3nccs3)cc2)c1O` was tested, and the GI50 was inactive: > 100 µM. For `CCC(=O)NC(OCC1(CC)COC1)(C(F)(F)F)C(F)(F)F`, the GI50 was inactive: > 100 µM. `O=C1NC(N2CCOCC2)=N/C1=C\c1ccccc1` was tested, and the GI50 was inactive: > 100 µM. For `Cc1ccc(S(=O)(=O)Nc2ccccc2C(=O)c2ccc(C)c(C)c2)cc1`, the GI50 was inactive: > 100 µM. With `CC1=NN(C(=O)c2ccccc2O)C(=O)/C1=C/c1ccccc1O` the GI50 was active: 0.805 µM. `CC1=Nn2c(nc3sc4c(c3c2=O)CCCC4)SC1` was tested, and the GI50 was inactive: > 100 µM. With `Cc1ccc(C2(C)NC(=S)N(NC(N)=S)C2=S)cc1` (stereo not drawn) the GI50 was inactive: > 100 µM. With `COc1ccc(N(CN2C(=O)CCC2OC)C(C)=O)cc1` (stereo not drawn) the GI50 was inactive: > 100 µM. With `OC1(C(Sc2ccccc2)Sc2ccccc2)CCCCCC1` the GI50 was inactive: 39.1 µM. In the case of `COc1ccc2c3c(n(Cc4ccccc4)c(=O)c2c1)-c1cc(OC)c(OC)cc1C3C` (stereo not drawn), the GI50 is reported as inactive: 33.7 µM. For `S=C(N/N=C\C=N/NC(=S)N1CCCCC1)N1CCCCC1`, the GI50 was active: 0.791 µM. In the case of `C=C(Br)CN(C#N)CC(=C)Br`, the GI50 is reported as inactive: > 100 µM. `CN(C)c1ccc(/C=c2/c3ccccc3n3c2cc(C24CC5CC(CC(C5)C2)C4)[n+]3C)cc1` was tested, and the GI50 was active: 0.37 µM. With `Cc1ccc(N)cc1.O=S(=O)(O)/C(=C\c1ccccc1)c1ccccc1` the GI50 was inactive: > 100 µM. `CCOC(=O)CCSc1nc2ccc(I)cc2c(=O)n1Cc1ccccc1` was tested, and the GI50 was inactive: 30 µM. For `CSc1ncc2c(n1)-c1ccccc1OC2`, the GI50 was inactive: 48.2 µM. In the case of `O=C(N[C@@H](c1ccccc1)[C@@H](O)C(=O)OCc1ccc2c(c1)OCO2)c1ccccc1`, the GI50 is reported as inactive: > 100 µM. In the case of `C=Cc1c(C)c2cc3nc(c4c5[nH]c(cc6nc(cc1[nH]2)C(C)=C6CC)c(C)c5C(=O)C4C(=O)OC)C(CCC(=O)OC)C3C` (stereo not drawn), the GI50 is reported as inactive: > 100 µM. For `N=C(N)/N=C(\N)Nc1cnccn1`, the GI50 was inactive: > 100 µM. In the case of `COc1ccc2c3c([nH]c2c1[N+](=O)[O-])C(C)N(Cc1ccc([N+](=O)[O-])cc1)CC3` (stereo not drawn), the GI50 is reported as inactive: 12.3 µM. In the case of `C[N+]1(C)C2CC(OC(=O)C(CO)c3ccccc3)CC1C1OC12` (stereo not drawn), the GI50 is reported as inactive: > 100 µM. With `CCCCC1(C(NC(=O)c2ccccc2Cl)c2ccncc2)C(=O)N(c2ccccc2)N(c2ccccc2)C1=O` (stereo not drawn) the GI50 was inactive: > 100 µM. For `NC(=S)N/N=C(\C(=O)Nc1cccc([N+](=O)[O-])c1)c1nc2ccc([N+](=O)[O-])cc2nc1O`, the GI50 was inactive: 46.3 µM. With `N=C(N)NCCN1CC2CCC(CC2)C1` the GI50 was inactive: > 100 µM. `C/C(=N\NS(=O)(=O)c1ccc(C)cc1)c1ccc[n+]([O-])n1` was tested, and the GI50 was inactive: > 100 µM. With `C=C1CN2CC(=C)CN(C1)CS(=O)(=O)N1CC(=C)CN(CC(=C)C1)S(=O)(=O)N1CC(=C)CN(CC(=C)C1)S(=O)(=O)C2` the GI50 was inactive: 27.7 µM.
